Measured values as given in the GPR68 mutational scans of Howard et al. (2025).
Scores whose standard error is large were omitted. Two further conditions of the source, in which the scores hardly spread, are not listed. In variant names, del marks residues removed and ins residues inserted between the two positions. For part of these data: The concentration of ogerin is not given here.

B1: GPR68, Q15743 (parent)
chain: MGNITADNSSMSCTIDHTIHQTLAPVVYVTVLVVGFPANCLSLYFGYLQIKARNELGVYLCNLTVADLFYICSLPFWLQYVLQHDNWSHGDLSCQVCGILLYENIYISVGFLCCISVDRYLAVAHPFRFHQFRTLKAAVGVSVVIWAKELLTSIYFLMHEEVIEDENQHRVCFEHYPIQAWQRAINYYRFLVGFLFPICLLLASYQGILRAVRRSHGTQKSRKDQIQRLVLSTVVIFLACFLPYHVLLLVRSVWEASCDFAKGVFNAYHFSLLLTSFNCVADPVLYCFVSETTHRDLARLRGACLAFLTCSRTGRAREAYPLGAPEASGKSGAQGEEPELLTKLHPAFQTPNSPGSGGFPTGRLA

What was measured:
[1] = variants of: B1; test: cAMP reporter score (Enrich2 score, wild type = 0); higher = more signal; HEK293T, FACS bins
[2] = variants of: B1; test: surface expression score (Enrich2 score, wild type = 0); higher = more signal; HEK293T, FACS bins

| Variant | cAMP reporter score ([1]; pH 5.5) | cAMP reporter score ([1]; pH 6) | cAMP reporter score ([1]; pH 6, modulator: ogerin) | cAMP reporter score ([1]; pH 6.5, modulator: ogerin) | surface expression score [2] |
| --- | --- | --- | --- | --- | --- |
| MGNITADNSSMSCTIDHTIHQTLAPVVYVTVLVVGFPANCLSLYFGYLQIKARNELGVYLCNLTVADLFYICSLPFWLQYVLQHDNWSHGDLSCQVCGILLYENIYISVGFLCCISVDRYLAVAHPFRFHQFRTLKAAVGVSVVIWAKELLTSIYFLMHEEVIEDENQHRVCFEHYPIQQWQRAINYYRFLVGFLFPICLLLASYQGILRAVRRSHGTQKSRKDQIQRLVLSTVVIFLACFLPYHVLLLVRSVWEASCDFAKGVFNAYHFSLLLTSFNCVADPVLYCFVSETTHRDLARLRGACLAFLTCSRTGRAREAYPLGAPEASGKSGAQGEEPELLTKLHPAFQTPNSPGSGGFPTGRLA [A180Q] | 0.76 | 1.12 | 0.997 | 2.08 | 0.543 |
| MGNITADNSSMSCTIDHTIHQTLAPVVYVTVLVVGFPANCLSLYFGYLQIKARNELGVYLCNLTVADLFYICSLPFWLQYVLQHDNWSHGDLSCQVCGILLYENIYISVGFLCCISVDRYLAVAHPFRFHQFRTLKAAVGVSVVIWAKELLTSIYFLMHEEVIEDENQHRVCFEHYPIQRWQRAINYYRFLVGFLFPICLLLASYQGILRAVRRSHGTQKSRKDQIQRLVLSTVVIFLACFLPYHVLLLVRSVWEASCDFAKGVFNAYHFSLLLTSFNCVADPVLYCFVSETTHRDLARLRGACLAFLTCSRTGRAREAYPLGAPEASGKSGAQGEEPELLTKLHPAFQTPNSPGSGGFPTGRLA [A180R] | -0.702 | -0.561 | 0.91 | – | – |
| MGNITADNSSMSCTIDHTIHQTLAPVVYVTVLVVGFPANCLSLYFGYLQIKARNELGVYLCNLTVADLFYICSLPFWLQYVLQHDNWSHGDLSCQVCGILLYENIYISVGFLCCISVDRYLAVAHPFRFHQFRTLKAAVGVSVVIWAKELLTSIYFLMHEEVIEDENQHRVCFEHYPIQSWQRAINYYRFLVGFLFPICLLLASYQGILRAVRRSHGTQKSRKDQIQRLVLSTVVIFLACFLPYHVLLLVRSVWEASCDFAKGVFNAYHFSLLLTSFNCVADPVLYCFVSETTHRDLARLRGACLAFLTCSRTGRAREAYPLGAPEASGKSGAQGEEPELLTKLHPAFQTPNSPGSGGFPTGRLA [A180S] | 1.15 | 0.317 | 1.39 | 1.48 | 1.96 |
| MGNITADNSSMSCTIDHTIHQTLAPVVYVTVLVVGFPANCLSLYFGYLQIKARNELGVYLCNLTVADLFYICSLPFWLQYVLQHDNWSHGDLSCQVCGILLYENIYISVGFLCCISVDRYLAVAHPFRFHQFRTLKAAVGVSVVIWAKELLTSIYFLMHEEVIEDENQHRVCFEHYPIQTWQRAINYYRFLVGFLFPICLLLASYQGILRAVRRSHGTQKSRKDQIQRLVLSTVVIFLACFLPYHVLLLVRSVWEASCDFAKGVFNAYHFSLLLTSFNCVADPVLYCFVSETTHRDLARLRGACLAFLTCSRTGRAREAYPLGAPEASGKSGAQGEEPELLTKLHPAFQTPNSPGSGGFPTGRLA [A180T] | 0.818 | 1.06 | 1.44 | 1.83 | 1.15 |
